The list shows a part of the results. Further columns of the screen follow, without active or inactive calls.
Columns and labels:
Experiment in all cases: Primary Screen for Target Class Profiling of Small Molecule Inhibitors of Methyltransferases
[1] = biological target: Glycine N-methyltransferase (Homo sapiens) (UniProt Q14749); conditions: purified enzyme, MTase-Glo SAH luminescence; measured here: GNMT inhibition; at 40 µM; stronger effect = lower value
How it was run: (§1)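 Each enzyme was reacted with SAM and its substrate, with compounds tested once at 40 uM; SAH formed was read by MTase-Glo luminescence.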

[2] = biological target: Guanidinoacetate N-methyltransferase (Homo sapiens) (UniProt Q14353); conditions: purified enzyme, MTase-Glo SAH luminescence; measured here: GAMT inhibition; at 40 µM; stronger effect = lower value
How it was run: as §1

[3] = biological target: Histamine N-methyltransferase (Homo sapiens) (UniProt P50135); conditions: purified enzyme, MTase-Glo SAH luminescence; measured here: HNMT inhibition; at 40 µM; stronger effect = lower value
How it was run: as §1

[4] = biological target: Nicotinamide N-methyltransferase (Homo sapiens) (UniProt P40261); conditions: purified enzyme, MTase-Glo SAH luminescence; measured here: NNMT inhibition; at 40 µM; stronger effect = lower value
How it was run: as §1

[5] = biological target: Phenylethanolamine N-methyltransferase (Homo sapiens) (UniProt P11086); conditions: purified enzyme, MTase-Glo SAH luminescence; measured here: PNMT inhibition; at 40 µM; stronger effect = lower value
How it was run: as §1
% is set by controls: 0 for no effect and ±100 for the full control effect.

Row | Compound | activity change, negative = inhibition [1] | activity change, negative = inhibition [2] | activity change, negative = inhibition [3] | activity change, negative = inhibition [4] | activity change, negative = inhibition [5]
1 | CN1[C@@H]2CC[C@H]1CC(OC(=O)c1c[nH]c3ccccc13)C2 (stereo partly drawn) | 4.22% | 10.5% | 0.847% | -7.68% | 4.78%
2 | Cc1ccc(CN2C[C@]34C=C[C@H](O3)C(C(=O)N(C)Cc3ccsc3)C4C2=O)cc1C (stereo partly drawn) | -0.883% | -0.486% | 1.9% | -1.45% | -11.2%
3 | CCC(C)NC(=O)c1ccc2c(=O)n(C(C)C)c3nn(CC(=O)NCc4ccc(F)cc4)c(=O)n3c2c1 (stereo not drawn) | 2.75% | 0% | 3.97% | -3% | 0.994%
4 | CCCC(C)c1c(-c2ccccc2)ncn1CCNC(C)=O (stereo not drawn) | -2.61% | 1.47% | 2.82% | -11% | -0.548%
5 | COc1ccc(-c2nnc3n(Cc4ccccc4)c(=O)c4ccccc4n23)cc1 | -10% | 2.29% | -2.14% | -6.43% | -7.11%
6 | COc1ccc2cc(C(=O)N3CC4CC(C3)[C@H]3CCCC(=O)N3C4)[nH]c2c1 (stereo partly drawn) | -3.27% | -0.329% | -0.325% | -3.08% | 6.91%
7 | O=C1CCC2(CCN1Cc1ccccc1)CCN(C(=O)c1ccccc1F)CC2 | -0.093% | -1.5% | -1.16% | -3.28% | -0.276%
8 | CNC(=O)c1cc(C)nc2onc(C3CCN(C(=O)C4CCCC4)CC3)c12 | -5.68% | -8.35% | -2.13% | -14.2% | -13.5%
9 | O=C(O)C1Cc2c([nH]c3ccccc23)C(c2ccc3c(c2)OCO3)N1 (stereo not drawn) | 11.9% | 2.68% | 14.3% | 4.23% | 9.59%
10 | CC(C)CCN1C(=O)c2ccccc2CC1(C)C(=O)NC1CCCCCCC1 (stereo not drawn) | 3.06% | 1.15% | 9.62% | -1.82% | 2.49%
11 | COc1ccc(-c2cc3n(n2)CC(C)(C(=O)NCc2ccccc2)N(Cc2ccc(C)o2)C3=O)cc1 (stereo not drawn) | 2.11% | 1.6% | 5.26% | -2.47% | 0.199%
12 | CC(C)CCn1c(=O)c2ccc(C(=O)NC3CCCC3)cc2n2c(=O)n(Cc3ccccc3Cl)nc12 | 2.57% | 0.937% | 8.34% | -1.65% | 4.64%
13 | COC(=O)c1ccc2c(=O)[nH]c3c(C(=O)NCc4ccc5c(c4)OCO5)sc(=S)n3c2c1 | -19.2% | 0% | 11.1% | -4.97% | -3.25%
14 | CC(C)CCNC(=O)c1ccc2c(=O)[nH]c3c(C(=O)NC4CCCC4)sc(=S)n3c2c1 | -22.5% | 2.06% | -6.3% | -32.9% | -27.3%
15 | COc1ccc(Cl)cc1NS(=O)(=O)c1ccc2c(c1)n(C)c(=O)n2C | 10.4% | 0% | 5.76% | -4.66% | 2.87%
16 | COC(=O)c1nc(NC(=O)Cn2nc3c(cc2=O)CCCC3)sc1C(C)C | -63.7% | 4.17% | 0.285% | -14% | 10.5%
17 | CC[C@H](C)[C@H](NC(=O)[C@H](Cc1ccc(O)cc1)NC(=O)[C@@H](N)C(C)C)C(=O)N[C@@H](Cc1cnc[nH]1)C(=O)N1CCC[C@H]1C(=O)N[C@@H](Cc1ccccc1)C(=O)O | -2% | -5.57% | 12.5% | -12.7% | 2.39%
18 | O=C(NC1CCOC2(CCOCC2)C1)c1ccc(-c2cnco2)cc1 (stereo not drawn) | -1.95% | -3% | -0.994% | -9.27% | -4.67%
19 | CCCOc1ccc(CN2C(=O)c3cc4occc4n3CC2(C)C(=O)NC2CCCCCC2)cc1 (stereo not drawn) | -0.458% | 4.94% | 1.79% | -5.77% | -4.98%

Row | Compound | activity change, negative = inhibition [1] | activity change, negative = inhibition [2] | activity change, negative = inhibition [3] | activity change, negative = inhibition [4] | activity change, negative = inhibition [5]
20 | O=C(Cn1nc2n(c1=O)CCCC2)NCc1ccc(F)cc1 | -6.14% | -11.5% | -4% | -9.32% | -9.35%
21 | CC1(C)[C@H]2CC[C@@H](CNC(=O)C3CC3)[C@@H]1C2 | -5.05% | -6.18% | -1.3% | -12% | 7.71%
22 | Cc1ccn(CC(=O)NCc2cccnc2Oc2ccccc2)n1 | -3.06% | -5.8% | -1.07% | -8.06% | -1.59%
23 | CC1CCC(NC(=O)C2(C)Cn3c(cc4sccc43)C(=O)N2Cc2ccccn2)CC1 (stereo not drawn) | -7.63% | 1.49% | -4.67% | -11.1% | -9.41%
24 | CCN(CC)CCNC(=O)CCn1ccc2cc(S(=O)(=O)N3CCCCC3)ccc21 | -1.27% | 2.38% | -15.9% | 1.15% | 1.53%
25 | CC1=NOC2(CCN(C(=O)c3ccccc3)CC2)C1 | -5.01% | -13.6% | -1.85% | -8.67% | -4.02%
26 | CC1CCC(NC(=O)C2(C)Cc3ccccc3C(=O)N2Cc2ccccc2Cl)CC1 (stereo not drawn) | -1.28% | 0% | 4.74% | -3.92% | -0.098%
27 | CCCn1c(=O)c2ccc(C(=O)NC(C)C)cc2n2c(=O)n(CC(=O)c3ccc(OC)cc3)nc12 | -1.36% | 4.58% | 3.07% | -1.13% | -1.15%
28 | Cc1cc(C(=O)N2CCOC(Cc3cccc(C(F)(F)F)c3)C2)nn1C (stereo not drawn) | -1.55% | 0.053% | 1.63% | -4.81% | -0.866%
29 | CCCC1O[C@@H]2C[C@H]3[C@@H]4CCC5=CC(=O)C=C[C@]5(C)[C@H]4[C@@H](O)C[C@]3(C)[C@]2(C(=O)CO)O1 (stereo partly drawn) | 3.21% | 11.7% | 11.6% | -16.6% | 1.56%
30 | O=C(Cn1nc2n(c1=O)CCCC2)NCCc1ccc(Cl)cc1 | -1.29% | 0.252% | 0.6% | 2.11% | -0.199%
31 | NCCC1CCCC(CCN)N1 (stereo not drawn) | 0.988% | 8.83% | 3.67% | -1.61% | 3%
32 | CNC(=O)[C@@H](c1ccccc1)N1CCc2cc(OC)c(OC)cc2[C@@H]1CCc1ccc(C(F)(F)F)cc1 | -0.898% | -8.03% | -3.7% | -28% | -8.57%
33 | O=C1CCC(CCC(=O)N2CCC(c3ccc(F)cc3)C2)(Cc2ccc3ccccc3c2)N1 (stereo not drawn) | -1.4% | -8.5% | 1.96% | 1.5% | 2.21%
34 | Cc1ccc(NC(=O)Cn2nc3n(CC(C)C)c(=O)c4ccc(C(=O)NCC(C)C)cc4n3c2=O)c(C)c1 | 5.06% | 0.219% | 8.06% | 1.7% | 3.45%
35 | CC1(CCC(=O)O)C(=O)C=CC23CC4CC(OC4(C)C2O)C13 (stereo not drawn) | -3.35% | -4.12% | 2.12% | -12.5% | 3.49%
36 | Cc1ccccc1CN1Cc2nc(-c3ccccc3)ccc2OCC1=O | -15% | -7.05% | -5.89% | -22.3% | -21%
37 | COc1ccc(-c2n[nH]n3c2nc(=O)c2ccc(C(=O)NCc4cccc(OC)c4)cc23)cc1 | -13.9% | 0% | 2.62% | 4.24% | -4.17%
38 | CCOC(=O)[C@H](CCc1ccccc1)N[C@H]1CCCN2CCC[C@@H](C(=O)O)N2C1=O | – | 5.66% | – | -9.09% | 4.85%
